Data from the antibiotic and cytotoxicity screens of Wong et al. (2023).
The other results are listed elsewhere or left out.

system: S. aureus RN4220; test: growth inhibition call (relative growth <= 0.2); settings: 50 µM

Growth inhibition call, inactive:
C[C@H](CO)N1C[C@H](C)[C@@H](CN(C)Cc2ccc(C(F)(F)F)cc2)OCCCC[C@H](C)Oc2ccc(NC(=O)c3ccccc3)cc2C1=O
C[C@H](CO)N1C[C@H](C)[C@H](CN(C)C(=O)Nc2ccccc2)OCCCC[C@H](C)Oc2ccc(NS(=O)(=O)c3cccs3)cc2C1=O
C[C@H]1CCCCO[C@@H](CN(C)Cc2ccc3c(c2)OCO3)[C@@H](C)CN([C@@H](C)CO)C(=O)c2cc(NC(=O)Nc3ccc(F)cc3)ccc2O1
CCOc1ccc(Cc2nccc3cc(OCC)c(OCC)cc23)cc1OCC.Cl
C[C@@H]1CN([C@H](C)CO)C(=O)c2c(c3ccccc3n2C)-c2ccccc2CO[C@@H]1CN(C)Cc1ccccc1C(F)(F)F
C[C@H]1CN([C@@H](C)CO)C(=O)Cc2cc(NC(=O)Nc3ccc(C(F)(F)F)cc3)ccc2O[C@H]1CN(C)C(=O)Nc1ccc(C(F)(F)F)cc1
C[C@H](CO)N1C[C@H](C)[C@H](CN(C)S(C)(=O)=O)Oc2ccc(NC(=O)CCCN(C)C)cc2CC1=O
C[C@H](CO)N1C[C@H](C)[C@@H](CN(C)C(=O)NC2CCCCC2)Oc2c(NC(=O)Nc3cccc4ccccc34)cccc2C1=O
COc1ccc(S(=O)(=O)N(C)C[C@@H]2Oc3c(NC(=O)C4CCOCC4)cccc3C(=O)N([C@H](C)CO)C[C@@H]2C)cc1
COc1cc(O)c(C(C)=O)c(OC)c1
Cc1noc(C)c1NC(=O)Nc1cccc2c1O[C@H](CN(C)Cc1ccc(-c3ccccc3)cc1)[C@@H](C)CN([C@@H](C)CO)C2=O
C[C@@H]1CN([C@@H](C)CO)C(=O)c2cc(NS(=O)(=O)c3cn(C)cn3)ccc2O[C@H]1CN(C)S(=O)(=O)c1cccs1
COc1ccc2c3c(n(c2c1)C)[C@@H](CO)N(C[C@]13CCN(CC1)C(=O)CN1CCOCC1)C(=O)Nc1ccc(cc1)F
Cc1ccc(S(=O)(=O)N(C)C[C@@H]2OCCCC[C@@H](C)Oc3ccc(NS(C)(=O)=O)cc3C(=O)N([C@@H](C)CO)C[C@H]2C)cc1
CCOc1nc2cccc(C(=O)O)c2n1Cc1ccc(-c2ccccc2-c2nnn[nH]2)cc1
C[C@H]1CN([C@@H](C)CO)C(=O)c2cc(NC(=O)Cc3cn(C)c4ccccc34)ccc2O[C@H]1CN(C)Cc1ccc(C(=O)Nc2ccccc2N)cc1
Cc1ccc(NC(=O)N(C)C[C@@H]2OCCCC[C@H](C)Oc3ccc(NC(=O)C4CCCCC4)cc3C(=O)N([C@H](C)CO)C[C@@H]2C)cc1
C[C@H](CO)N1C[C@H](C)[C@@H](CN(C)C(=O)CCC(F)(F)F)OCCCC[C@H](C)Oc2ccc(NS(=O)(=O)c3ccc(Cl)cc3)cc2C1=O
CCCNC(=O)N(C)C[C@@H]1Oc2cc(C#Cc3cccc(F)c3)ccc2S(=O)(=O)N([C@H](C)CO)C[C@@H]1C
CCCNC(=O)N1C[C@@H](O)COC[C@@H]2O[C@@H](CC(=O)N3CCN(C)CC3)CC[C@H]21
Cc1cncc2cccc(S(=O)(=O)N[C@H]3CN[C@H](COC(=O)NCCOCCOCCN)C3)c12
C[C@@H]1CCCCO[C@@H](CN(C)Cc2ccc(Cl)c(Cl)c2)[C@@H](C)CN([C@@H](C)CO)C(=O)c2cc(NC(=O)Nc3cccc4ccccc34)ccc2O1
CCC(C)(C)NC(=N)NC#N
COc1ccccc1-c1cnc2c(c1)C(=O)N([C@H](C)CO)C[C@@H](C)[C@H](CN(C)C(=O)c1cccnc1)O2
NC(=O)C1CCN(C(=O)c2ccco2)CC1
C[C@@H]1CN([C@@H](C)CO)C(=O)c2cc(NC(=O)Cn3cnnn3)ccc2O[C@@H]1CN(C)S(=O)(=O)c1cn(C)cn1
Cc1ccc(S(=O)(=O)N(C)C[C@H]2Oc3ncc(-c4ccncc4)cc3C(=O)N([C@@H](C)CO)C[C@H]2C)cc1
COc1ccc(-c2cccc(-c3nc(C(=O)NCC(F)(F)F)cc4c3[C@H](CCO)N([S@@](=O)C(C)(C)C)C4)c2)cc1
